# Source: PubChem BioAssay (Tox21)
# Several values for one entry are separate records, joined by “and”; a condition that tells them apart may be missing. Identical values can stand only once. The shares of active, inactive and inconclusive entries below differ from those in the screen. For some of these results: Potencies beside an inconclusive call are fits to weak or partial responses and may not hold up. Some structures have more than one record in an assay (separate samples or runs), and their calls can disagree. Activity calls are given as the source filed them. Unless noted, calls follow the shape of the dose curve; as a rule, active = well fitted curve in the direction sought with a large enough effect in the repeat runs; inconclusive = weak or mixed curves; inactive = no such curve, though single readings can be large; an effect the other way counts as inactive or inconclusive.
# How the values were obtained:
# [1] = molecular target: Peroxisome proliferator-activated receptor gamma (Homo sapiens) (UniProt P37231); assay: qHTS assay to identify small molecule agonists of the peroxisome proliferator-activated receptor gamma (PPARg) signaling pathway (AID 743094; active = well fitted activation curve with a large enough effect in the signal ratio in the repeat runs, not every such curve was filed as active; inconclusive = weak or mixed curves, or effect the other way; inactive = no such curve, though single readings can be large or run the other way; the % refers to the signal ratio; also: potency is read from the fitted curve at half-maximal effect; as to activation: % is scaled to controls: 0 for no effect and ±100 for the full control effect); details: HEK293H PPARg-UAS-bla, beta-lactamase FRET ratio, 17 h; activation: at 57 µM (top of the series) unless noted
# How it was run: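 Agonist activity was taken from a beta-lactamase reporter (FRET substrate, 1 h at room temperature) in HEK293H cells carrying a PPARg UAS-bla construct. Compounds in DMSO were incubated 17 h at 37C after a 5 h cell pre-incubation.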
# [2] = qHTS assay to identify small molecule antagonists of the peroxisome proliferator-activated receptor delta (PPARd) signaling pathway - cell viability counter screen (AID 743213); details: PPARd-bla HEK293H viability, CellTiter-Glo luminescence, 17 h; viability change, negative = cytotoxic: at 62 µM (top of the series) unless noted; also: nearly all actives have a fitted effect of over 50% in size; also: potency is read from the fitted curve at half-maximal effect; as to viability change, negative = cytotoxic: % is scaled to controls: 0 for no effect and ±100 for the full control effect
# How it was run: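 Cytotoxicity counter screen: CellTiter-Glo luminescence read 30 min after addition, in the same wells as the reporter assay. There, PPARd UAS-bla HEK293H cells (3000/well) were treated 17 h at 37 C with compound and 300 nM L165041.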
# [3] = molecular target: Estrogen receptor beta (Homo sapiens) (UniProt Q92731); assay: qHTS assay to identify small molecule antagonists of the estrogen receptor beta (ER-beta) signaling pathway (AID 1259378; active = well fitted inhibition curve with a large enough effect in the signal ratio in the repeat runs, not every such curve was filed as active; inconclusive = weak or mixed curves, or effect the other way; inactive = no such curve, though single readings can be large or run the other way; the % refers to the signal ratio; also: potency is read from the fitted curve at half-maximal effect); details: ER-beta-UAS-bla HEK293T, beta-lactamase FRET ratio, 16 h; activity, negative = inhibition: at 92.4 µM (top of the series) unless noted
# How it was run: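 ER-beta-UAS-bla HEK293T cells in 2% charcoal-stripped FBS medium treated with compound plus 1nM final 17-beta-estradiol for 16 hr at 37C. Beta-lactamase reporter read by FRET substrate fluorescence after 2 hours at room temperature.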
# [4] = qHTS assay for small molecule agonists of the p53 signaling pathway (AID 651631; calls by dose curve; also: nearly all actives have a fitted effect of over 15% in size; also: potency is read from the fitted curve at half-maximal effect); details: HCT-116 p53RE-bla reporter, beta-lactamase FRET ratio, 16 h; activation: at 73.3 µM (top of the series) unless noted
# How it was run: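 Testing took place in human colorectal HCT-116 cells with stable p53RE-driven beta-lactamase. After 16 h of compound exposure at 37 °C, a FRET substrate was added and fluorescence recorded 2 h later.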
# [5] = molecular target: Thyrotropin receptor (Homo sapiens) (UniProt P16473); assay: qHTS assay to identify small molecule agonists of the thyroid stimulating hormone receptor (TSHR) signaling pathway (AID 1224843; calls by dose curve; also: nearly all actives have a fitted effect of over 45% in size; also: potency is read from the fitted curve at half-maximal effect; as to activation: % is scaled to controls: 0 for no effect and ±100 for the full control effect); details: TSHR-HEK293 cells, cAMP HTRF, agonist mode, 30 min; activation: at 92.4 µM (top of the series) unless noted
# How it was run: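 Agonist-mode screen: TSHR HEK293 cells received test chemicals for half an hour at room temperature, then HTRF cAMP detection reagents for one hour prior to fluorescence measurement. Each chemical ran as a 15-concentration series, triplicated.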
# [6] = qHTS RealTime-Glo MT Cell Viability Assay in HEK293 cells - 32 hour (AID 1224868); also: nearly all actives have a fitted effect of over 50% in size; also: potency is read from the fitted curve at half-maximal effect
# How it was run: (§1)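 Viability tracked continuously by luminescence as live cells reduce a prosubstrate for NanoLuc; HEK293 cells preincubated 5 h, compound-treated at 37 C, and read at 0, 8, 16, 24, 32 and 40 h.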
# [7] = qHTS assay for identifying genotoxic compounds that show differential cytotoxicity against isogenic chicken DT40 cell lines with known DNA damage response pathways - Rad54/Ku70 mutant cell line (AID 743015); details: DT40 Rad54/Ku70 mutant viability, CellTiter-Glo, 40 h; activity change, negative = cytotoxicity: at 66.8 µM (top of the series); also: nearly all actives have a fitted effect of over 60% in size; also: potency is read from the fitted curve at half-maximal effect
# [8] = qHTS assay to identify small molecule antagonists of the vitamin D receptor (VDR) signaling pathway - cell viability counter screen (AID 743225); details: VDR-bla HEK293T viability, CellTiter-Glo luminescence, 16 h; viability change, negative = cytotoxic: at 61 µM (top of the series) unless noted; also: potency is read from the fitted curve at half-maximal effect; nearly all actives have a fitted effect of over 50% in size
# How it was run: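 Same-well multiplex: following 16 h treatment of HEK 293T cells carrying a UAS-driven beta-lactamase reporter with compound and agonist (3 nM final), and a 2 h FRET substrate step, CellTiter-Glo was added and luminescence read after 30 min.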
# [9] = qHTS assay to identify small molecule agonists of the retinoic acid receptor (RAR) signaling pathway (AID 1159553); details: C3RL4 RARE luciferase reporter, agonist, 6 h; activation: at 73.3 µM (top of the series) unless noted; also: potency is read from the fitted curve at half-maximal effect
# How it was run: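 Luminescence was measured 30 min after luciferase reagent addition at room temperature. Before that, C3RL4 reporter cells (1,000 per well, plated overnight) were treated with compound for 6 hr at 37 C and 5% CO2.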
# [10] = qHTS RealTime-Glo MT Cell Viability Assay in HEK293 cells - 24 hour (AID 1224886); also: nearly all actives have a fitted effect of over 50% in size; also: potency is read from the fitted curve at half-maximal effect
# How it was run: as §1
# [11] = molecular target: Nuclear receptor subfamily 1 group I member 2 (Homo sapiens) (UniProt O75469); assay: Human pregnane X receptor (PXR) small molecule agonists, qHTS assay (AID 1346982); also: nearly all actives have a fitted effect of over 35% in size; also: potency is read from the fitted curve at half-maximal effect
# How it was run: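 Agonist mode: luminescence from ONE-Glo after 24 h compound exposure at 37C in HepG2 cells carrying hPXR-responsive CYP3A4 luciferase, plated in charcoal-stripped serum medium 5 h beforehand.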
# [12] = molecular target: Peroxisome proliferator-activated receptor delta (Homo sapiens) (UniProt Q03181); assay: qHTS assay to identify small molecule antagonists of the peroxisome proliferator-activated receptor delta (PPARd) signaling pathway (AID 743215; active = well fitted inhibition curve with a large enough effect in the signal ratio in the repeat runs, not every such curve was filed as active; inconclusive = weak or mixed curves, or effect the other way; inactive = no such curve, though single readings can be large or run the other way; the % refers to the signal ratio;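 also: cells stimulated with agonist L165041 at 300 nM final during compound exposure; % is scaled to controls: 0 for no effect and ±100 for the full control effect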); details: HEK293H PPARd-UAS-bla, beta-lactamase FRET ratio, antagonist, 17 h; ratio activity, negative = inhibition: at 62 µM (top of the series) unless noted
# How it was run: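 Agonist L165041 (300 nM final) added with compound to PPARd-bla HEK293H UAS-bla reporter cells; 17 h incubation at 37 C. Read-out: LiveBLAzer FRET substrate, 2 h at room temperature, fluorescence intensity.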
# [13] = qHTS RealTime-Glo MT Cell Viability Assay in HEK293 cells - 40 hour (AID 1224874); details: RealTime-Glo luminescence; max response: stronger effect = lower value; also: nearly all actives have a fitted effect of over 50% in size; also: potency is read from the fitted curve at half-maximal effect
# How it was run: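 Luminescence, which tracks viable cell number through reduction of the prosubstrate to a NanoLuc substrate, was read over continuous 37 C culture. Cells (600/well) were premixed with reagent and rested 5 h before 23 nL of compound in DMSO was pinned.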
# [14] = qHTS assay to identify small molecule antagonists of the progesterone receptor (PR) signaling pathway - cell viability counter screen (AID 1346798); also: nearly all actives have a fitted effect of over 50% in size; also: potency is read from the fitted curve at half-maximal effect
# How it was run: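 CellTiter-Glo luminescence; PR-UAS-bla HEK293T, 3,000 cells/well; compound + R5020, 16 hr, 37C/5% CO2; 30 min RT before read.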
# [15] = qHTS RealTime-Glo MT Cell Viability Assay in HEK293 cells - 16 hour (AID 1224872); also: nearly all actives have a fitted effect of over 50% in size; also: potency is read from the fitted curve at half-maximal effect
# How it was run: as §1
# [16] = qHTS assay to identify small molecule agonists of the estrogen receptor beta (ER-beta) signaling pathway - cell viability counter screen (AID 1259380); also: % is scaled to controls: 0 for no effect and ±100 for the full control effect; nearly all actives have a fitted effect of over 30% in size
# How it was run: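 Cell viability counter screen: CellTiter-Glo luminescence (30 min, room temperature) measured in the same wells as the beta-lactamase readout, after 16 hr compound exposure at 37C of ER-beta-bla HEK293T cells in 2% charcoal-stripped FBS medium.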
# [17] = qHTS assay to identify small molecule agonists of the estrogen receptor alpha (ER-alpha) signaling pathway in the presence of an antagonist - cell viability counter screen (AID 1259386); also: % is scaled to controls: 0 for no effect and ±100 for the full control effect; nearly all actives have a fitted effect of over 30% in size
# How it was run: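 Compounds tested at 15 concentrations for 22 h at 37C alongside 10.0nM (final) ICI-182,780 antagonist, in VM7Luc4E2 cells grown in phenol red-free, charcoal-stripped medium. Viability read by CellTiter-Fluor fluorescence after 1 h reagent incubation.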
# [18] = qHTS assay to identify small molecule antagonists of the peroxisome proliferator-activated receptor gamma (PPARg) signaling pathway - cell viability counter screen (AID 743194); details: PPARg-bla HEK293H viability, CellTiter-Glo luminescence, 17 h; Potency: co-treated with 50 nM rosiglitazone unless noted; activity change, negative = cytotoxicity: at 62.6 µM (top of the series), co-treated with 50 nM rosiglitazone unless noted; also: potency is read from the fitted curve at half-maximal effect; nearly all actives have a fitted effect of over 55% in size
# How it was run: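 Cytotoxicity counter screen in PPARg-bla HEK293H cells, same wells as reporter assay. Compounds plus 50 nM rosiglitazone (final) for 17 h at 37 C, then viability read by CellTiter-Glo luminescence.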
# [19] = qHTS assay to identify small molecule agonists of H2AX - cell viability counter screen (AID 1224847; calls by dose curve; also: nearly all actives have a fitted effect of over 30% in size; also: potency is read from the fitted curve at half-maximal effect)
# How it was run: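 For this counter screen, overnight-attached CHO-K1 cells received test compounds (15 concentrations, 0.76% DMSO final); 3 hr later at 37C, CellTiter-Glo reagent was added and luminescence recorded after 30 min at room temperature.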
# [20] = molecular target: Estrogen receptor beta (Homo sapiens) (UniProt Q92731); assay: qHTS assay to identify small molecule agonists of the estrogen receptor beta (ER-beta) signaling pathway (AID 1259377; active = well fitted activation curve with a large enough effect in the signal ratio in the repeat runs, not every such curve was filed as active; inconclusive = weak or mixed curves, or effect the other way; the % refers to the signal ratio; also: potency is read from the fitted curve at half-maximal effect); details: ER-beta-UAS-bla HEK293T, beta-lactamase FRET ratio, 16 h; activation: at 92.4 µM (top of the series) unless noted
# How it was run: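 qHTS in ER-beta-UAS-bla HEK293T cells: 6 hr settling, then 16 hr compound at 37C, then LiveBLAzer substrate 2 h at RT before fluorescence reading.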
# Tags tell the direction and shape of the fitted curve or compound fluorescence and quenching.
# UniProt P16473, sequence (P16473 whole entry, looked up): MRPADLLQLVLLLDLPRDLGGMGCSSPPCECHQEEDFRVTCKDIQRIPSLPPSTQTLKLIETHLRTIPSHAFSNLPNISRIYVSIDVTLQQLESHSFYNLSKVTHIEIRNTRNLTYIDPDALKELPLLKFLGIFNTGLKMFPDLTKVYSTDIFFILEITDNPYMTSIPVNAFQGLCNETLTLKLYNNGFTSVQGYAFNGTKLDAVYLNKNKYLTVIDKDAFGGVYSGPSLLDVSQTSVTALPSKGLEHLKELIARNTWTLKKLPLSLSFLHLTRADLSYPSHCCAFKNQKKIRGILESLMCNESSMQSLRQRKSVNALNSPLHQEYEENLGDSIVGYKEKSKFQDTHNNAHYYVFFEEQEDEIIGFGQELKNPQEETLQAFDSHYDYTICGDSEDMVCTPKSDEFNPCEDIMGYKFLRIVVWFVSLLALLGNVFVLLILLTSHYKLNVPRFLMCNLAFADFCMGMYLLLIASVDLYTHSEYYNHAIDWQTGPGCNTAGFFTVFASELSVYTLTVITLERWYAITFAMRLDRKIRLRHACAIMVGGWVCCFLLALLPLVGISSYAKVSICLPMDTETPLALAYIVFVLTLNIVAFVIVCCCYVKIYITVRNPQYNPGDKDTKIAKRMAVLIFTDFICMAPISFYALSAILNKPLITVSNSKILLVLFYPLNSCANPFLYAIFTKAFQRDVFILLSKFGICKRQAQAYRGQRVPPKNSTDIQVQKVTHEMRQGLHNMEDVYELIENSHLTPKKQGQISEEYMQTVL
# UniProt P37231, sequence (P37231 whole entry, looked up): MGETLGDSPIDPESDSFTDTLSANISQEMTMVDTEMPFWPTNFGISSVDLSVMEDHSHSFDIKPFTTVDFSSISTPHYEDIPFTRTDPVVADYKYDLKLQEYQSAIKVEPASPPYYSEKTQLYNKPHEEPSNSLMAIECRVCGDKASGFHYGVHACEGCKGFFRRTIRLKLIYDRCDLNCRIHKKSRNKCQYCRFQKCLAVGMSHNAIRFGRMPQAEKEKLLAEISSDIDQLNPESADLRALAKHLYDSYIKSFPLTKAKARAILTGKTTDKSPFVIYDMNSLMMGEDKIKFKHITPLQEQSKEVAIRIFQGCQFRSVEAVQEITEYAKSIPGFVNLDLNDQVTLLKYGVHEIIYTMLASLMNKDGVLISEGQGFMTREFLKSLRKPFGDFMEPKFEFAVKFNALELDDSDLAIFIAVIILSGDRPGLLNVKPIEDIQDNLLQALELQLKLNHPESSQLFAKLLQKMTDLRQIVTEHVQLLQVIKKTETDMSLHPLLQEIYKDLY
# UniProt Q03181, sequence (Q03181 whole entry, looked up): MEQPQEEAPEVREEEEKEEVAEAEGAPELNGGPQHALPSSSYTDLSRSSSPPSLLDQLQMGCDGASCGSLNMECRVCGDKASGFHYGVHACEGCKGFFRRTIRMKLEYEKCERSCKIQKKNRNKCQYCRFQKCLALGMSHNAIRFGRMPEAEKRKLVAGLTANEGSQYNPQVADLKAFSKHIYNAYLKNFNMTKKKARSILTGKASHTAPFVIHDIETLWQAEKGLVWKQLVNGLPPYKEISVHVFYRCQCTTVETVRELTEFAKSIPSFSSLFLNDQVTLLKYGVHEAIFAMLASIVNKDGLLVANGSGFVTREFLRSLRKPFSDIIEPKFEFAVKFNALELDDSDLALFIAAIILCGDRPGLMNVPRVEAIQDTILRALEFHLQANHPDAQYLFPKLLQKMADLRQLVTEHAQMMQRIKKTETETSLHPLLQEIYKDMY
# UniProt Q92731, sequence (Q92731 whole entry, looked up): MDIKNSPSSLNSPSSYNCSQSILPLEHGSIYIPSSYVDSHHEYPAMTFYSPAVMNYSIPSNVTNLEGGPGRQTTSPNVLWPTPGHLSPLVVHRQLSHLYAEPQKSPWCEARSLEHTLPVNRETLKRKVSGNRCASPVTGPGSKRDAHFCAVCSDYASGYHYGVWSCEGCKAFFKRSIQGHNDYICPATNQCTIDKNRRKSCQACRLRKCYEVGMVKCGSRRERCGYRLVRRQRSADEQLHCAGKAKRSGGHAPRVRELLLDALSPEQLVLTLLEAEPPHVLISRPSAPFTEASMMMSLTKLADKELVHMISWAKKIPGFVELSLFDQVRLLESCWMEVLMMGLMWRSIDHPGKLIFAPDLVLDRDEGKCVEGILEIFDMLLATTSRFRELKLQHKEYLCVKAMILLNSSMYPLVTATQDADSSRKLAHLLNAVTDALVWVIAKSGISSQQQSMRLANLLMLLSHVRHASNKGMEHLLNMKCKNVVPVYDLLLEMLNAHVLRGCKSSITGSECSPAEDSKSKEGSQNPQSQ
# UniProt O75469, sequence (O75469 whole entry, looked up): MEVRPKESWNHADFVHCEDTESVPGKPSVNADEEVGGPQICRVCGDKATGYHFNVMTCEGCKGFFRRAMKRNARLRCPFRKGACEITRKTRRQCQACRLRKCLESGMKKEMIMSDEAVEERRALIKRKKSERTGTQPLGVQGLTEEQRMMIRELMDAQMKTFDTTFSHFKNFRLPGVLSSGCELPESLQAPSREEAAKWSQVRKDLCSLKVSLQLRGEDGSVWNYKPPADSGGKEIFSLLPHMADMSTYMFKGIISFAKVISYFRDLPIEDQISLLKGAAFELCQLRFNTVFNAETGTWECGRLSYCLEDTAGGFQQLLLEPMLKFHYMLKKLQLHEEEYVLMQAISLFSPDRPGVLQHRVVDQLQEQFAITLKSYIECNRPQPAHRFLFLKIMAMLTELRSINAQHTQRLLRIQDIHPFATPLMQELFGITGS
compound,measurement,setting,value
Cc1ccc(S(=O)(=O)N[C@@H](CCCCN)C(=O)CCl)cc1,activation,[1],inconclusive: 1.09%
same,Potency,[2],inactive
same,Potency,[3],inconclusive: 33.5 µM [single point]
COc1cnc(OC)n2nc(NS(=O)(=O)c3c(OCC(F)F)cccc3C(F)(F)F)nc12,Potency,[4],"inconclusive: 30.6 µM [rising, partial curve, poor fit]"
same,activation,[5],inconclusive: 4.08%
same,Potency,[6],inactive
CC(Cc1ccc(O)cc1)NCC(O)c1cc(O)cc(O)c1 (stereo not drawn),Potency,[7],inactive
same,Potency,[2],"inconclusive: 2.66 µM [cytotoxic, full curve, poor fit]"
same,Potency,[8],"inconclusive: 0.535 µM [cytotoxic, single point]"
same,Potency,[9],inactive
same,Potency,[5],active: 0.841 µM
same,Potency,[10],inactive
CNC(=O)O/N=C/C(C)(C)S(C)(=O)=O,activation,[4],inconclusive: 1.82%
same,Potency,[11],inactive
N#CN=C(N)N,"viability change, negative = cytotoxic",[2],inconclusive: 3.14% [cytotoxic] [at 80.4 µM]
same,"ratio activity, negative = inhibition",[12],inconclusive: 2.94%
same,activation,[9],inconclusive: -2.09% [phenotype inactive] [at 94.8 µM]
same,max response,[13],inactive: 1.89% and inactive: 5.69%
same,Potency,[14],inactive
CN(N=O)C(N)=O,Potency,[9],"inconclusive: 68.6 µM [inhibitor, single point]"
same,Potency,[14],"inconclusive: 68.6 µM [rising, single point]"
Cc1ncc2n1-c1ccc(Cl)cc1C(c1ccccc1F)=NC2,Potency,[4],"inconclusive: 1.19 µM [activator, single point]"
same,Potency,[7],"inconclusive: 33.5 µM [cytotoxic, single point]"
same,Potency,[1],"inconclusive: 21.3 µM [activator, partial curve, poor fit]"
same,Potency,[9],"inconclusive: 26.6 µM [inhibitor, partial curve]"
same,Potency,[6],"inconclusive: 19 µM [cytotoxic, partial curve]"
same,Potency,[15],"inconclusive: 23.9 µM [cytotoxic, single point]"
same,Potency,[13],active: 19 µM
same,Potency,[10],"inconclusive: 21.3 µM [cytotoxic, single point]"
same,"activity, negative = inhibition",[3],inconclusive: -13% [at 42.5 µM]
same,Potency,[16],inactive
same,Potency,[14],"inconclusive: 11.9 µM [rising, full curve]"
CCN(CCO)CCn1c(Cc2ccccc2)nc2c1c(=O)n(C)c(=O)n2C,Potency,[9],inactive
same,Potency,[3],inactive
CCC(C)Cl (stereo not drawn),Potency,[9],inactive
same,Potency,[15],inactive
same,Potency,[17],inactive
CC(C#N)CCC#N (stereo not drawn),Potency,[18],"inconclusive: 24.5 µM [cytotoxic, partial curve, poor fit]"
same,Potency,[12],inactive
same,Potency,[19],inactive
CC(C)NCC(O)c1ccc([N+](=O)[O-])cc1 (stereo not drawn),Potency,[9],inactive
same,"activity, negative = inhibition",[3],inconclusive: 4.21% [at 42.5 µM]
same,Potency,[14],"inconclusive: 2.98 µM [cytotoxic, single point]"
Cc1cccc([N+](=O)[O-])c1,Potency,[18],"inconclusive: 2.45 µM [rising, full curve, poor fit]"
same,activation,[9],inconclusive: 0.252% [phenotype inactive]
same,Potency,[11],inactive
COP(=O)(NC(C)=O)SC (stereo not drawn),Potency,[7],active: 30.6 µM
same,Potency,[12],inactive
same,Potency,[3],inactive
same,Potency,[16],inactive
same,Potency,[11],"inconclusive: 61.2 µM [activator, single point]"
Brc1c(Br)c(Br)c(Oc2c(Br)c(Br)c(Br)c(Br)c2Br)c(Br)c1Br,"activity change, negative = cytotoxicity",[15],inactive: 3.04% [at 15.8 µM]
CCC(=O)c1ccccc1,Potency,[2],"inconclusive: 12.3 µM [cytotoxic, single point]"
same,Potency,[5],inactive
same,max response,[13],inactive: 5.66%
N#Cc1ccccc1Cl,Potency,[16],inactive
same,Potency,[17],inactive
CCCCCCCCCCBr,Potency,[20],"inconclusive: 15.4 µM [activator, partial curve, poor fit]"
O=[N+]([O-])c1ccc(Cl)cc1,Potency,[4],"inconclusive: 0.611 µM [falling, single point]"
same,Potency,[5],inactive
same,Potency,[3],inactive
same,Potency,[14],inactive
same,Potency,[11],"inconclusive: 68 µM [activator, single point]"
O=C(Nc1ccc(F)cc1F)c1cccnc1Oc1cccc(C(F)(F)F)c1,Potency,[5],active: 37.8 µM
same,Potency,[19],"inconclusive: 78.4 µM [cytotoxic, partial curve]"
same,Potency,[11],active: 4.24 µM
Brc1c(Br)c(Br)c(Br)c(Br)c1Br,Potency,[1],"inconclusive: 3 µM [activator, partial curve, poor fit]"
same,Potency,[8],"inconclusive: 0.0476 µM [cytotoxic, full curve, poor fit]"
same,"activity change, negative = cytotoxicity",[19],inactive: -1.61% [at 14 µM]
same,Potency,[6],"inconclusive: 3 µM [rising, partial curve, poor fit]"
same,Potency,[15],"inconclusive: 3 µM [rising, single point]"
same,Potency,[10],"inconclusive: 3 µM [rising, single point]"
same,activation,[11],inactive: 1.3% [at 8.39 µM]
